Whole data set: some 33,000 sequences, median “E-score (-0.5 to 0.5)” near -0.011, cut for the highest 2% near 0.28. The list shows a part of the results.
What follows are sequences tested against T1, Gcr1 (UniProt P07261) (assay: PBM E-score (8-mer binding enrichment) (E-score (-0.5 to 0.5)); higher = stronger / more preferred TF binding; most listed sequences are background and not binding sites). Settings: protein concentration: 100 nM; construct: GST-full length.
T1 sequence: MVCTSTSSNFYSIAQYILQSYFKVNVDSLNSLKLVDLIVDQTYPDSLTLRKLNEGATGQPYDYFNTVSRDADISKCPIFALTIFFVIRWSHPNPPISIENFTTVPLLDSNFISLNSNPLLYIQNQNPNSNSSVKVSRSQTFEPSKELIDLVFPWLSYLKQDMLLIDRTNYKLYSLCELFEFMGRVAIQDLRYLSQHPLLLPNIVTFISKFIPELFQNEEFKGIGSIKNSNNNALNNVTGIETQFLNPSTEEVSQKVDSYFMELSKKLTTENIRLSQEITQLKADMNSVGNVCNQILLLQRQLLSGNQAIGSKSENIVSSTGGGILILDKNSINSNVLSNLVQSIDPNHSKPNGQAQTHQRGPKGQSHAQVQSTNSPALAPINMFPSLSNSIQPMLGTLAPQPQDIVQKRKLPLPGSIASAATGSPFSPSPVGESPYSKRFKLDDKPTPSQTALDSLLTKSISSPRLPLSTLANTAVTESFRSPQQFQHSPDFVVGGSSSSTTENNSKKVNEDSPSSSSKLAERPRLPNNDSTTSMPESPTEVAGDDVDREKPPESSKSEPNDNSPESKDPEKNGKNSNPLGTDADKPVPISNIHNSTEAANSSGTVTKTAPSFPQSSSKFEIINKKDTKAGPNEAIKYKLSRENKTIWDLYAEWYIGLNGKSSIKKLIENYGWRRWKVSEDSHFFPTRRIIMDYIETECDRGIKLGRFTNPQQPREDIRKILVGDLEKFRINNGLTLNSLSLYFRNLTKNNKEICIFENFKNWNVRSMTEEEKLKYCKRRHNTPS
Method in brief: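 Bound GST-tagged yeast transcription factors, applied at about 100-200 nM to double-stranded universal all-10-mer Agilent arrays, were detected with fluorescent anti-GST. Scans were normalised with masliner. A modified Wilcoxon-Mann-Whitney statistic, the E-score, was assigned to each ungapped eight-base word pooled with its reverse complement by the Universal PBM Analysis Suite.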

Sequence | PBM E-score
CCACTTAC | 0.088
AGAGATCC | 0.0351
AAGGCTAT | -0.275
CATGTGGC | -0.0981
CCCGAAAG | 0.224
AGGCAGAA | -0.219
AGATCACA | -0.0742
ATTGCAAG | -0.0606
CTGTGAAG | 0.0393
CCCTGTGA | -0.229
CGAACAGC | -0.077
CCTGTTAC | -0.0373
CGATCTAC | -0.0727
GTTGCTAA | 0.126
AATCAAAC | -0.06
CCCCCCGG | -0.214
GGTTCATA | -0.164
AGGCATCC | 0.387
ATTTCCCA | -0.0517
ATAACACG | -0.00339
GGAAGTTA | 0.339
CCAAGCGG | -0.108
ACGATCCC | 0.15
GGTACTAA | 0.198
ACAATCGT | -0.127

Sequence | PBM E-score
GTGGCTAA | 0.0558
TTGACAAA | -0.0717
AAAGGGGG | -0.0767
CCAACAGG | 0.0968
CTATATAC | 0.135
CCCGTTCA | -0.0178
ACCTGATA | 0.0579
CGGAATTA | 0.188
GGCCACCA | 0.0909
CGTCCATA | 0.173
GCGGTATA | -0.124
ACACGAGT | -0.046
AGAGCAAG | -0.2
AATAGATC | -0.0063
CGCGAGGC | -0.129
ACGGGCAC | 0.114
AACCTTAT | 0.0881
AACGGATA | -0.00054
CCAGTCAA | 0.0483
ACTCCGGA | 0.198
TCTAAAGA | 0.0717
CCTTAGCC | -0.0482
ATGCGAAT | 0.162
GAAAATGA | 0.0123
AATAATGA | 0.0865

Sequence | PBM E-score
AGATAGGG | -0.00487
TGGAGGAA | -0.0795
CGATAAGC | -0.188
ACCGGTAC | 0.0158
GAATGCAA | 0.0271
AGACCAAG | -0.149
AAGAACGG | -0.141
AGAAGGCC | 0.0434
AAGTCATC | -0.169
CTACCGCC | -0.237
AAAAGTCC | 0.00595
AGTCCACT | 0.18
AAGAAGGT | 0.122
CGATTCTA | 0.0385
CTGCCAAA | 0.157
ATAGCCCG | -0.124
GTGTTTAA | -0.0755
ACGATTAG | -0.163
GCAAAAGA | -0.172
AGGGACTG | -0.264
ATACGCGG | 0.115
GGTTAATA | 0.0151
CAGCTGGG | -0.0114
CTGCCGTC | -0.11
GAAATCCA | 0.192

Sequence | PBM E-score
CTTCGCTC | -0.12
ATAGACCG | -0.183
GACTTTTA | -0.0556
CTGTTGCC | 0.112
AAGTGATT | -0.052
ATTCCTCC | 0.153
CTAACGAA | -0.00472
CTGTTCGA | -0.105
GGGTGAAC | -0.254
AGCACACT | -0.164
ATCCAGTC | 0.145
AAGCGGTC | 0.0279
ACGTTCAG | -0.254
GCGGTACA | -0.197
AACGAGTA | 0.014
CGTGGATA | -0.104
ATCAAACC | 0.0747
GCATAGCC | -0.311
AGACTACC | -0.239
GATGGTAC | -0.0137
ACAACCCC | -0.133
ATCAGATC | -0.0629
CAATTGTA | 0.0437
CGTGCAAC | -0.0564
GTCTTAGA | 0.0315

Sequence | PBM E-score
GCTGCTAA | 0.2
AATACAGG | 0.343
ATAGCCTA | -0.134
AGGCTTAT | -0.258
ATAACGGA | 0.188
CCATTATC | 0.219
CCAGTCCG | -0.038
GGGTTACC | -0.142
GTTGGCTA | 0.103
ACGCGCCC | 0.352
AACAGATC | -0.169
CATCTGCC | 0.127
GCCCTCAC | -0.183
CTCCGCAC | -0.105
CATTTCAC | -0.0869
TAATCAGA | 0.189
ACGATGGG | -0.041
CTATAACA | -0.0172
AGATTCCC | 0.265
CCCCTCCA | 0.109
ACATGAAT | 0.0191
CGCTCTCC | -0.195
AACTGCTC | -0.208
CCTGGGGC | -0.0718
AACTTAGG | 0.123

Sequence | PBM E-score
GTCTGGCA | -0.153
ACGATAGG | 0.149
AGAGTAAC | -0.248
GACGTTAA | -0.0271
TCAACTAA | -0.00686
CTTAGGAA | 0.142
CAAATTAC | 0.155
GAGACGAC | -0.159
CCGAAAAA | 0.158
AAAAATCA | 0.052
GTTCAGGA | 0.134
CCATACAA | 0.157
GGGTGCGA | -0.0925
TGTTCAAA | -0.014
AGGTGTCA | 0.162
GCGTTAGC | -0.135
CACTTTCC | 0.0878
ACCCGAAG | 0.106
ATCATAGG | 0.0674
AAACCCAA | 0.0869
ATGAATTC | 0.104
CAATCACA | -0.0744
AACAATCA | -0.0387
ACCGTAGT | -0.0942
TGTGTAAA | 0.102

Sequence | PBM E-score
AAAATCGC | 0.0752
CGGGGAAC | 0.0303
CCGTACAG | -0.186
GGCCTACA | -0.0286
ACCCGCGC | -0.0565
CGACCTAC | -0.148
GATGGGGC | 0.0208
AACGCTCG | -0.168
CCAAACTC | 0.00455
AATCGCCT | -0.0372
ATGGCCAT | -0.154
ATACCGTA | -0.0485
GGGTCTAA | -0.0543
GTCGGGTA | 0.1
CTTAGATA | 0.0548
CTGGGGTA | -0.0593
GCCCACCC | 0.182
GTTACTAA | 0.0464
CTGTTCGC | 0.0314
TCCTCTCA | 0.162
GATGGAAA | 0.029
ACCAAGTA | 0.00559
ACGGGAAT | 0.111
CTATTGTC | -0.141
GTTGTGAA | -0.0947

Sequence | PBM E-score
GTTGGAGA | -0.00098
CTCTCCCA | -0.0788
GGGTTCAA | -0.101
ATTTTTCG | 0.0814
CCGGATAA | 0.125
GTATATGA | -0.0566
ATTTACTA | 0.0638
ACGGCAGG | -0.261
CATATTCC | -0.189
CAGGTACA | -0.0209
GGGCTCCA | 0.318
ATCTATAA | 0.0292
AAAGCATA | 0.0556
AATAGCTA | 0.0488
CCTGTGAA | 0.15
GCTCTTAA | 0.171
GGGGTAGA | 0.049
GTATGGAA | 0.0155
GATAGTCA | -0.264
TACACAAA | 0.112
CCACCCAG | 0.273
AACTACAC | -0.0872
CCGCCAAA | 0.0502
GCGGATAA | 0.161
AACTCAGT | -0.21

Sequence | PBM E-score
GACCAAAA | 0.155
CCCTGACG | -0.0677
CACGCGGA | -0.028
GAACCATC | -0.157
ATGTACAC | 0.00539
CCCGGGGC | 0.0219
GGAGGCCC | 0.0846
CGCCGGGC | -0.0527
AAGTCGCT | 0.0779
GAGCTTAC | -0.17
CGTGATGA | -0.0315
ATGCTAAT | 0.267
CATTAAAA | 0.306
AGCCCTAG | 0.0495
GCTAACCA | 0.0133
ATTGGCTG | 0.13
GGATTCAC | 0.159
AGGCCTCC | 0.174
CGGCTCAA | 0.00705

From the supplement of paper PMC3334620
